Laboratory results published in paper PMC7884418.
These are yes or no findings as the source states them, for the method shown. Binding seen in cells or lysates may run through a third protein. Some binding calls cover weakened binding; strength is not graded here.

Sequences of proteins named here, by UniProt entry; tags and fusion partners are left off.
UniProt Q16763: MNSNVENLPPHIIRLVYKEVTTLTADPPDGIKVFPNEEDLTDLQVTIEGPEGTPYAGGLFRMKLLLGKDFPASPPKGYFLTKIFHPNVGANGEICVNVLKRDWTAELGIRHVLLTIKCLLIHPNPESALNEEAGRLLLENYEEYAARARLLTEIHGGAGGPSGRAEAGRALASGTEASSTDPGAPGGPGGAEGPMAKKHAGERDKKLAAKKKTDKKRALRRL
UniProt P46527: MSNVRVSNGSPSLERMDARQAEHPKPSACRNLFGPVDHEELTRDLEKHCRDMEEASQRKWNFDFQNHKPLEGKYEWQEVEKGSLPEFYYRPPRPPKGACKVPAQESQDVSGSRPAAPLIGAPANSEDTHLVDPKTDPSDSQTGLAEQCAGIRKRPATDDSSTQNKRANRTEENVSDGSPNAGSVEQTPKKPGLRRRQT
UniProt Q13263: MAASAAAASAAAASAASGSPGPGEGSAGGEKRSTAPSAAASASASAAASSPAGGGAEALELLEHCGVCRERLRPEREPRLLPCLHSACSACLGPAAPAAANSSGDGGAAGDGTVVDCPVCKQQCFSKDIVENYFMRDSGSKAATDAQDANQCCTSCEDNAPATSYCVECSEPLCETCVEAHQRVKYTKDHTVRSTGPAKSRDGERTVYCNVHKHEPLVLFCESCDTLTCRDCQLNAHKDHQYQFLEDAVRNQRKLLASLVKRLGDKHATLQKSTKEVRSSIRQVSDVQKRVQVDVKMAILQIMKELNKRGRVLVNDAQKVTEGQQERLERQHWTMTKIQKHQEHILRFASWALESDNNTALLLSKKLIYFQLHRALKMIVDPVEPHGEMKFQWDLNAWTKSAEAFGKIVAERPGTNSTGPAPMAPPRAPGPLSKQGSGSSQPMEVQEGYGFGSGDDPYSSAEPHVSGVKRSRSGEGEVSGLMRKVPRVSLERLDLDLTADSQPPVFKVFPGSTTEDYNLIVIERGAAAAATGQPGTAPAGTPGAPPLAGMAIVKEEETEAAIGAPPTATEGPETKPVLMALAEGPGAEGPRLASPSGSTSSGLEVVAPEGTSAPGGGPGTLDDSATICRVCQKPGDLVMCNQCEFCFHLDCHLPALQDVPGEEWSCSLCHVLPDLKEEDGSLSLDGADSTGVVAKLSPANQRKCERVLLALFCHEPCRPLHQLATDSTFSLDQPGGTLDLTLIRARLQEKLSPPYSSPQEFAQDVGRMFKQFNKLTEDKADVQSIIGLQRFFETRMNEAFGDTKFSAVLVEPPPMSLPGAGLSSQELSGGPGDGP

What was measured:
[1] = target: UBE2S-EGFP (UniProt Q16763); experiment: FRET or BRET; HEK293T cells transiently transfected with UBE2S-EGFP and TRIM28-DsRed2 plasmids; read in the nucleus
[2] = target: UBE2S-EGFP (UniProt Q16763); experiment: FRET or BRET; HEK293T cells transiently transfected with UBE2S-EGFP and TRIM28-DsRed2 plasmids; read in the cytoplasm
[3] = target: UBE2S (human (endogenous in Huh-7 and MHCC-97H)) (UniProt Q16763); experiment: co-IP; endogenous proteins, nuclear extract of Huh-7 and MHCC-97H cells
[4] = target: p27 (human (endogenous in HCC cells)) (UniProt P46527); experiment: as above
[5] = target: UBE2S (human (endogenous in Huh-7 and MHCC-97H)) (UniProt Q16763); experiment: co-IP; endogenous proteins, HCC cell lines, co-immunoprecipitation and western blot
[6] = target: p27 (human (endogenous in HCC cells)) (UniProt P46527); experiment: as above
[7] = target: exogenous UBE2S (UniProt Q16763); experiment: co-IP; exogenous (transfected) proteins, co-immunoprecipitation and western blot

With “TRIM28-DsRed2 (from UniProt Q13263 1-835)” the binding [1] was “binds” and the binding [2] was “no binding (condition: in the cytoplasm)”.
“Tripartite motif-containing 28 (TRIM28) (from UniProt Q13263 1-835)” was tested, and the binding [3] was “binds”, the binding [4] was “binds” and the binding [5] was “binds”. For the same substance, the binding [6] was “binds”.
With “UBE2S (from UniProt Q16763 1-222) (enzyme)” the binding [4] was “binds” and the binding [6] was “binds”.
“exogenous TRIM28 (from UniProt Q13263 1-835)” was tested, and the binding [7] was “binds”.
